Source: publication PMC4336329 (PLoS ONE, 2015)
Out of some 310,000 compounds screened, about 14,000 (4.5%) showed an effect of 50% or more. The effect is printed as a negative number. This is one part of the list.

These molecules were tested against human ether-à-go-go-related gene (hERG) potassium channel (human, UniProt Q12809) (assay: primary screen, population patch clamp on CHO cells stably expressing hERG).
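Also: peak tail current of the secondary pulse compared with the same well before compound.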

human ether-à-go-go-related gene (hERG) potassium channel, sequence (Q12809 whole entry, looked up): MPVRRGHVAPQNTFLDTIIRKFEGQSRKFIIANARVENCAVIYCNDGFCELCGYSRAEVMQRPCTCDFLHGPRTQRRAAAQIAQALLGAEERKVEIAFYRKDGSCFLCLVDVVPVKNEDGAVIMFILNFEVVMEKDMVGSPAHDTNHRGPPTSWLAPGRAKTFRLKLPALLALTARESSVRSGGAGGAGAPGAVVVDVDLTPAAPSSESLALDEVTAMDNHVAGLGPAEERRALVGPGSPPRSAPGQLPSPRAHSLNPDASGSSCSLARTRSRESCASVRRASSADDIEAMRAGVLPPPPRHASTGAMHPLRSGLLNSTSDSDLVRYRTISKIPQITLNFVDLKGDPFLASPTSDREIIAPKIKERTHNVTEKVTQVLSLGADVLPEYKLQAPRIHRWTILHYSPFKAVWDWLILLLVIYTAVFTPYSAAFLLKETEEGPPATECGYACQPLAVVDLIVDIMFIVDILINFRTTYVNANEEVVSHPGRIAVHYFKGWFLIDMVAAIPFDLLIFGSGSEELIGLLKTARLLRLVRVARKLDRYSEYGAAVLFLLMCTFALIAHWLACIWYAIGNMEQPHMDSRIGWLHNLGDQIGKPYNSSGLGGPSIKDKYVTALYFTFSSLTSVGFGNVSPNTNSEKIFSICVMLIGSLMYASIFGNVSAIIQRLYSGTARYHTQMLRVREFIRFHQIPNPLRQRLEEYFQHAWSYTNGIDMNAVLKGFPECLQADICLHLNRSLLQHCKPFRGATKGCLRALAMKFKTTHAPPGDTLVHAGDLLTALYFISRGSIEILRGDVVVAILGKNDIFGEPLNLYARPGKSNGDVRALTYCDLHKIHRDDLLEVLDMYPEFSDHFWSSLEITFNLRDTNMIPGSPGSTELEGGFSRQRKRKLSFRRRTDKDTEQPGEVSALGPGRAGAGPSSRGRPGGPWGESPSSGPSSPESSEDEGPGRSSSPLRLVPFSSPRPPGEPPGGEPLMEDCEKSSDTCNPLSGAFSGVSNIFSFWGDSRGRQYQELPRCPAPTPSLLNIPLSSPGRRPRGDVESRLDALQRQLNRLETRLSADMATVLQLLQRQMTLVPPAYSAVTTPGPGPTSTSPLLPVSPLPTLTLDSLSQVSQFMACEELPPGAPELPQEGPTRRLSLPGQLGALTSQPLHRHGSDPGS

Row | SMILES | hERG current change (%, negative = inhibition) at 10uM [%]
1 | Nc1ccccc1OCCOCCOCCOc1ccccc1N | 6.68
2 | CCOC(=O)c1c(NC(=O)CN2CCCCC2)sc(C)c1C | 18.5
3 | CCC(C)NC(=O)c1ccc2nc(Cc3ccc(OC)cc3)oc2c1 (centres unmarked) | 14.5
4 | COc1cccc(-c2nn(-c3ccccc3)cc2/C=C(\C#N)C(=O)NCCCn2ccnc2)c1 | -38.8
5 | COc1cccc(C(=O)Nc2ccc(S(=O)(=O)Nc3onc(C)c3C)cc2)c1 | 22.3
6 | CCCCn1c(SCC(=O)OCC)nnc1-c1ccoc1C | 8.76
7 | O=C(NCCN1CCOCC1)c1cc2ccccc2[nH]1 | 5.13
8 | NCCc1ccc(O)cc1 | -5.78
9 | O=C1c2ccccc2C(=O)N1CC1CCCO1 (centres unmarked) | 8.48
10 | Oc1ccc2ccccc2c1C=Nc1cc(C(F)(F)F)ccc1N1CCCC1 | 4.96
11 | Nc1c(C(=O)O)cnn1-c1ccccc1 | 7.29
12 | CC(=O)Nc1ccc(CN2CCC(n3nccc3NC(=O)CCc3ccccc3)CC2)cc1 | -5.87
13 | Cc1ccc2nc(N(CCCN(C)C)C(=O)COc3ccc(Cl)cc3)sc2c1.Cl | -8.71
14 | Cc1ccccc1C(=O)Nc1nnc(SCC(=O)NC2CC2)s1 | 9.97
15 | O=C(CNC(=O)c1ccc(Br)o1)NCC1CCCO1 (centres unmarked) | 9
16 | O=C(NC1CCN(C(=O)Nc2ccccc2Cl)CC1)c1ccco1 | -0.0116
17 | COC(=O)[C@H](CCSC)NC(=O)Nc1ccc(C)c(C)c1 | -83.6
18 | O=C(Nc1c(C(=O)O)[nH]c2ccccc12)c1cccc(C(F)(F)F)c1 | 20.8
19 | Cc1ccc2c(c1)C1CN(C)CCC1N2C(=O)/C=C/c1ccc2c(c1)OCO2 (centres unmarked) | -62.6
20 | O=C(c1ccc2c(c1)OCO2)N(CC1CCCO1)C1(C(=O)NC2CCCC2)CCCCC1 (centres unmarked) | 0.673

Row | SMILES | hERG current change (%, negative = inhibition) at 10uM [%]
21 | CCOC(=O)Cc1cc(=O)n(-c2nc3ccccc3s2)[nH]1 | 5.12
22 | Cc1c(Cl)cccc1NC(=O)C1CC2CCC1C2 (centres unmarked) | 10.5
23 | O=C1CCN(S(=O)(=O)c2ccccc2)CCN1CCOCc1ccc(Cl)cc1 | -25.6
24 | C/C(CC(=O)NCCCN1CCOCC1)=N\NC(=O)COc1cccc2ccccc12 | -6.9
25 | CC(C)=C1SC(N2CCN(Cc3ccccc3)CC2)=NC1=O | -6.87
26 | Cc1ccc(NC(=O)c2ccc(S(=O)(=O)N3CCCCCC3)cc2)nc1 | 9.2
27 | CNC(=O)Nc1cc(C(F)(F)F)cc(C(F)(F)F)c1 | 14.3
28 | COc1cccc(CNC(=O)c2ccncc2)c1 | 20.8
29 | CC(C)(C)N(CC#CCC1(O)c2ccccc2-c2ccccc21)CCO | 24.2
30 | COc1ccc(CCNC(=O)CSc2nnnn2Cc2ccc3c(c2)OCO3)cc1OC | -4.15
31 | CC(=O)Nc1ccc(OCC(O)CN2CCCCC2C)cc1.Cl (centres unmarked) | 3.85
32 | COc1ccc(CN(CC(=O)NC2CCCC2)C(=O)CCC(=O)Nc2nccs2)cc1 | -11.7
33 | CCS(=O)(=O)c1ncc(Cl)c(C(=O)Nc2ccc(S(=O)(=O)N3CCCC(C)C3)cc2)n1 (centres unmarked) | 10.7
34 | O=C1CCC(=O)N1CC(=O)N1c2ccccc2Sc2ccccc21 | 3.19
35 | Cc1ccc(S(=O)(=O)N2CC=C(c3c(C)n(C)c4ccccc34)CC2)cc1 | 8.88
36 | O=C(Cc1coc2ccc3ccccc3c12)N1CCCC1 | -6.75
37 | O=C(Cc1c(F)cccc1Cl)Nc1cc(S(=O)(=O)N2CCCCC2)ccc1N1CCOCC1 | -52.2
38 | CCCOc1ccc(N2C(=O)CC(SCc3nc4ccccc4[nH]3)C2=O)cc1 (centres unmarked) | -41.2
39 | Cc1cc(NC(=O)c2ccoc2C)no1 | 5.83
40 | CCc1ccccc1Nc1nc(N)nc(COC(=O)CCNS(=O)(=O)c2ccccc2)n1 | -62.7

Row | SMILES | hERG current change (%, negative = inhibition) at 10uM [%]
41 | O=[N+]([O-])c1ccc(NCCOc2ccccc2Cl)nc1 | -1.09
42 | CCOC(=O)C1(Cc2cccc(F)c2)CCN(C(=O)Cn2cnnn2)CC1 | -6.4
43 | COc1cccc(OC2OC3COC(C)(C)OC3C(O)C2NC(C)=O)c1 (centres unmarked) | 7.26
44 | O=C(NCCN1C(=O)S/C(=C\c2ccc(OC(F)F)cc2)C1=O)c1cnccn1 | -57.1
45 | COCCn1c(C(C)C)nc2sc3ccccc3c(=O)c2c1=O | -3.9
46 | CN1CCN(c2cc(C(F)(F)F)nc3ccc(F)cc23)CC1 | -9.27
47 | Cc1nc2ccccc2nc1CN1CCN(Cc2ccc(F)c(F)c2)C(CCO)C1 (centres unmarked) | -40.4
48 | COc1ccc(CNC(=O)CN(C(=O)CCC(=O)Nc2ccccn2)c2ccc3c(c2)OCO3)cc1 | -2.13
49 | CCOc1ccccc1N1CCN(C(=O)COc2ccc3c(C)cc(=O)oc3c2)CC1 | -6.28
50 | Nc1c(C(=O)OCC(=O)NCc2ccccc2)[nH]c(=O)[nH]c1=O | 14
51 | Cc1ccc(-c2nc3ccccc3o2)cc1NC(=O)Cc1cccs1 | 18.7
52 | CCOC(=O)c1ccc(S(=O)(=O)N2CC(=O)Nc3ccccc32)cc1 | 12.5
53 | CC(NC(=O)CCC(=O)NC(C)c1ccccc1)c1ccccc1 (centres unmarked) | 5.2
54 | CON(C)c1nc(OCC#N)nc(N(C)C)n1 | 27.3
55 | COC(=O)[C@@H](NC(=O)Nc1cccc(Br)c1)C(C)C | -1.91
56 | CCCC(=O)Nc1sc2c(c1C(=O)Nc1ccccn1)CCCC2 | 0.458
57 | O=C1/C(=C\c2ccncc2)N2CCC1CC2 | 5.88
58 | CN1C(=O)Nc2cccc3cccc1c23 | 2.81
59 | COc1ccc(CCn2c(=O)[nH]c3cc(C(=O)N4CCN(c5ccccc5)CC4)ccc3c2=O)cc1OC | 14.1
